The campaign covered roughly 150,000 compounds. About 540 (0.36%) showed an effect of 50% or more. The list shows a part of the results.
system: Plasmodium falciparum; assay: Primary screen in NF54 nanoGlo assay, in single point, at 2uM, 72h; a lower Z score goes with more inhibition; format: functional, Erythrocyte; details: timepoint 72 hour

| SMILES | % Inhibition [%] | Z score |
| --- | --- | --- |
| O=C1N[C@@H](COCc2ccccc2)C(=O)N[C@H]1CO | 1 | -0.1 |
| O=C(CCN1CCc2ccccc21)Nc1cccc(Cl)c1 | -4 | 0.76 |
| O=C(Nc1ccccc1N1CCCC1)c1ccc2ccccc2n1 | -2 | 0.2 |
| COc1ccccc1N1CCN(C(=O)c2cc3c(=O)n(CC(C)C)ccc3n2C)CC1 | -12 | 1.14 |
| Cc1nc2cncc(N3CCN(C[C@H]4COCCO4)CC3)n2n1 | 0 | 0.03 |
| CS(=O)(=O)N1CCC[C@H](CNC(=O)c2cncc(Cl)c2)C1 | -7 | 0.86 |
| CCOC(=O)N1CCC(N[C@@H](CC)c2ccncc2)CC1 | 3 | -0.4 |
| CC1CCN(C(=O)NCCCc2nc3c(s2)CCCC3)C1CO (configuration not stated) | -8 | 1.08 |
| COc1cccc(-c2ccc(N3CCCN(C(=O)CN(C[C@H]4CCCO4)C(=O)c4ccc5c(c4)OCO5)CC3)nn2)c1 | 6 | -0.77 |
| O=C(NCc1ccco1)C(=O)NC[C@](O)(c1ccoc1)c1ccco1 | -8 | 1.22 |
| Cc1sc(-c2c[nH]c3ccccc23)nc1-c1c[nH]c2ccccc12 | 1 | -0.14 |
| O=C(CNC(=O)C1CCCCC1)NC1CCCCCC1 | 28 | -3.2 |
| O=C(CCCn1ccnc1)NCCn1cc(Cl)cn1 | 3 | -0.63 |
| O=C(Cc1cccc(O)c1)N1CCC2(CCCC2)C1 | -3 | 0.5 |
| CC(c1ccccc1)n1cc(NC(=O)N2C[C@H](C)C[C@H](O)C2)cn1 (some centres not stated) | -3 | 0.34 |
| C#CCNC(=O)NCc1cccc(C(=O)OC)c1 | -7 | 0.76 |
| CCCNCC[C@H]1CCC(=O)N1C1Cc2ccccc2C1 | -7 | 0.85 |
| O=S(=O)(c1cccc(F)c1)N1CCN(Cc2cc(Cl)ccc2OCc2cccnc2)CC1 | -5 | 1 |
| CC[C@H](C)c1nnc(C2(c3cccc(C(F)(F)F)c3)CCOCC2)o1 | -6 | 0.61 |
| COc1ncccc1CNC(=O)C1CCC(=O)C(C)C1 (configuration not stated) | 8 | -0.86 |
| O=C(Nc1ccc2c(c1)OCO2)c1nnc(CNS(=O)(=O)c2ccccc2C(F)(F)F)s1 | -6 | 1.03 |
| CNS(=O)(=O)NC1CCN(Cc2ccc(Cl)cc2Br)CC1 | -1 | 0.12 |

| SMILES | % Inhibition [%] | Z score |
| --- | --- | --- |
| C=CCn1cc(CN2CC[C@H]2c2cccc(OC)c2)c(C)n1 | -8 | 1 |
| CC(=O)[C@H](C)n1c(=O)c2c(nc3n2CCCCN3c2ccc(Oc3ccccc3)cc2)n(C)c1=O | 16 | -1.86 |
| CC(=O)N1CCC[C@@H]1C(=O)N1Cc2cnn(-c3ccccc3)c2C1 | 7 | -1.1 |
| Cc1nccn1[C@@H](C)CC(=O)NCCc1cnn(C)c1 | -8 | 1.06 |
| Cn1cc2c(NCC3CC4C=CC3CC4)ncnc2n1 (configuration not stated) | 2 | -0.36 |
| CCOC(=O)C[C@H](NC(=O)c1cccc2c1C(=O)N(C1CCCCC1)C2)c1ccc(OC(C)C)cc1 | -9 | 1.24 |
| O=C1CC2(CCN(C3CCN(c4cccc(Cl)c4)CC3)CC2)CN1 | -23 | 4.34 |
| CCN(CC)CCCC1CCN(C(=O)C(F)(F)c2ccccn2)CC1 | -2 | 0.22 |
| O=C(NC1CCC(Oc2ncccc2Cl)CC1)c1cc[nH]n1 (configuration not stated) | -5 | 0.47 |
| CN(C)c1nc(N)cc(-c2ccc(-n3cccn3)cc2)n1 | -1 | 0.21 |
| Cc1c(CCNC(=O)N2CCC[C@@H]2C(N)=O)c2cccc3c2n1CCC3 | -15 | 1.74 |
| c1ccc2c(-c3cnnc(N4CCN5CCC[C@H]5C4)n3)cccc2c1 | -18 | 2.65 |
| C[C@H]1CCCN(Cn2nnc3ccccc32)C1 | -29 | 3.37 |
| CN(C)[C@H]1CCc2ccccc2N(Cc2nnn(C(C)(C)C)n2)C1 | 6 | -1.03 |
| Cc1cc(CN2CCN(C(=O)NCc3ccncc3)CC2)on1 | -8 | 0.71 |
| Cc1ccc(C(=O)O)c(N2CC[C@@]3(CCCN(C4CCCCC4)C3=O)C2)n1 | -1 | 0.13 |
| Cc1cccc(C(=O)N2CCC(CC3CC3)(c3noc(C4CCOCC4)n3)CC2)n1 | -13 | 1.73 |
| Cc1n[nH]cc1CNC(=O)C[C@@H]1C=CCC1 | -12 | 1.2 |
| Cc1ccc(-c2nc(N)c(C#N)c(-c3cn(CCO)nc3C)c2C)cc1 | 4 | -0.76 |
| Clc1cc2c(cc1Br)CCN2 | 3 | -0.46 |
| Cc1nc(CC(=O)Nc2nc(-c3ccc(OC(C)C)cc3)cs2)cs1 | -15 | 1.32 |
| CCOc1cccc(N2C(=O)CC(N3CCN(C4CC(=O)N(c5cccc(OCC)c5)C4=O)CC3)C2=O)c1 (configuration not stated) | -9 | 1.18 |

| SMILES | % Inhibition [%] | Z score |
| --- | --- | --- |
| Cc1ccc([C@H](C)NC(=O)NCC(=O)NCC2CC2)cc1F | -1 | 0.13 |
| CO[C@@H](CS(=O)(=O)Nc1c(C)cc(C)cc1C(=O)O)C(C)C | -6 | 0.98 |
| FC(F)CN1CCC(N[C@H]2CCCc3sccc32)CC1 | -13 | 1.73 |
| Cc1nc2c(s1)c(C)nn2-c1ccccc1 | 8 | -1.35 |
| Cc1ccc(Nc2nc(NCCCOC(C)C)nc3[nH]nnc23)cc1 | -8 | 1.24 |
| CN(Cc1[nH]c2ccccc2c1Cl)C[C@H]1CCOC1 | -9 | 1.54 |
| O=C(c1nc2ccccc2[nH]1)N1C[C@@H]2CC[C@H]1CN(Cc1ccccc1)C2 | -7 | 1.39 |
| Cc1nnc2n1C[C@@H](Nc1ncc(C(F)(F)F)cc1Cl)CC2 | -10 | 1.13 |
| O=c1n(Cc2ccccc2)c2ccncc2n1Cc1ccccn1 | 6 | -0.84 |
| Cc1ccc(S(=O)(=O)Nc2nc(C)c(C)c(=O)[nH]2)cc1 | -2 | 0.28 |
| CC(C)(C)NC(=O)N1CC[C@H](n2c(-c3ccco3)nc3cccnc32)C1 | -16 | 1.79 |
| Cc1ccccc1OC1CN(Cc2cncn2C)C1 | 1 | -0.15 |
| CCn1c(-c2cc(NC(=O)c3cccs3)[nH]n2)cc2ccc(OC)cc21 | 12 | -1.34 |
| Cc1ccccc1[C@H]1CN(C2CCCC2)C[C@@H]1C(=O)O | 1 | -0.1 |
| Cc1ccc(C(=O)N2CCC(c3n[nH]c(=O)o3)CC2)nn1 | -8 | 0.92 |
| CCCc1nc(C(C)(C)NC(=O)c2sc(-c3ccc(OC)c(OC)c3)nc2C)no1 | -10 | 1.09 |
| CCN(CC(N)=O)C(=O)[C@H](C)c1ccc(OC)cc1 | -10 | 1.32 |
| CCc1cc(CN2C[C@H](NC(=O)C3CCOCC3)[C@@H](C3CC3)C2)on1 | -14 | 1.39 |
| COCCC1(NC(=O)c2ccccc2)CCN(S(=O)(=O)c2cccnc2)CC1 | -8 | 0.96 |
| COc1ccc(CC(=O)N2CCC3(CC2)C[C@@H]3NS(C)(=O)=O)cc1 | -11 | 1.41 |
| Cc1cc(C(=O)N[C@@H](Cc2ccncc2)C(=O)O)c(C)s1 | -10 | 1.29 |
| CC(C)OCCC(=O)NC[C@H]1CCC=CO1 | -14 | 2.72 |

| SMILES | % Inhibition [%] | Z score |
| --- | --- | --- |
| O=C(CN1CCC[C@H]1c1nc2ccccc2s1)NCc1ccc2c(c1)OCO2 | -5 | 0.7 |
| Cc1n[nH]nc1C(=O)NCc1cnn(C(C)C)c1 | 0 | 0.03 |
| CO[C@H]1CC[C@H](NC(=O)c2ccc(Cl)c(F)c2)CC1 | -3 | 0.54 |
| Cc1ccc2c(c1C)NC1(CCCCC1)C[C@@H]2C | -5 | 0.41 |
| CCN(CC(F)(F)F)C(=O)CN1C(=O)OC[C@@H]1c1ccccc1 | 1 | -0.23 |
| O=C1[C@@H](n2ccnn2)CCN1c1c(F)cccc1F | 13 | -1.68 |
| Cc1c(C(=O)N2C[C@H]3CCC[C@@H](C3)C2)ccn1C | -11 | 1.74 |
| O=C(NC1CC2CCC(C1)S2(=O)=O)c1ccc(Cl)o1 (configuration not stated) | -19 | 2.01 |
| Cc1cc(C(=O)N2CC(C)(C)CC[C@@H]2CO)n2nc(C)cc2n1 | -18 | 1.95 |
| Cc1cn2cnc(/N=C(/NCCO)Nc3ccccc3)c2c(=O)n1C | 6 | -0.74 |
| CC(C)(C)c1cc(C(=O)Nc2ncc(C3CCNCC3)s2)no1 | -2 | 0.32 |
| Cc1nc(CCN2CCC[C@H]2c2ccccc2)cs1 | -17 | 2.44 |
| COc1ccccc1Cn1cnc2cc(C(=O)N3CC[C@@](F)(CO)C3)ccc21 | -5 | 0.94 |
| CC(C)[C@H](Nc1ccc2cc[nH]c2n1)c1nccn1C | -14 | 1.2 |
| O=C1CC[C@@H](C(=O)N2CCN(CCCOCC(F)(F)F)CC2)N1 | -7 | 0.69 |
| COc1ccc2oc(CNC(=O)Cn3cc(C)cn3)nc2c1 | -16 | 2.01 |
| O=C(NCc1nnc2n1CCC2)c1ccccc1OC[C@H]1CCCO1 | 6 | -0.77 |
| O=C(Nc1cc(F)c(F)c(F)c1)N1CCC[C@H](n2nccc2C(F)(F)F)C1 | -1 | 0.06 |
| Fc1ccc(CN2CC[C@H](c3nnc(Cc4ccccc4)o3)C2)cc1F | 27 | -3.08 |
| COc1ccc(CNC(=O)N(C)CC(C)C)c(OC)c1 | 0 | 0.03 |
